In PubChem BioAssay AID1240 (Sanford-Burnham Center for Chemical Genomics, 2008):
Screen size: about 50,000 compounds; about 800 (1.6%) showed an effect of 50% or more. Some of the results follow.

Each compound was assayed against Bcl-2-like protein 10 (Homo sapiens) (UniProt Q9HD36) (assay: TR3 peptide-Bcl-B binding displacers, biochemical primary FP assay, phenotype converters (AID 1240;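 also: 0% = Bcl-B with tracer peptide and DMSO and 100% = tracer peptide lacking Bcl-B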)). Conditions: GST-Bcl-B / FITC-TR3 peptide fluorescence polarization; stronger effect = higher value; compound at 3.75 mg/L.
Chain of UniProt Q9HD36 (Q9HD36 whole entry, looked up): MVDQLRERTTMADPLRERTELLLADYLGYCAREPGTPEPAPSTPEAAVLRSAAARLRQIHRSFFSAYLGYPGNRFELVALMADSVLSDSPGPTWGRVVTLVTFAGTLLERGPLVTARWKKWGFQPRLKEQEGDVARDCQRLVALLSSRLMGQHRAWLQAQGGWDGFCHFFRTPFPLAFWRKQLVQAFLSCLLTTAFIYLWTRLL

Row | Structure (SMILES) | displacement [%]
1 | O=C(c1ccc(Cl)c(Cl)c1)N1CCN(c2cccc(Cl)c2)CC1 | 2.7
2 | O=C1NC(=O)N(c2ccc(Cl)cc2)C(=O)/C1=C/c1ccc(Oc2ccc([N+](=O)[O-])cn2)cc1 | 2
3 | COc1ccc(Br)cc1/C=C/C(=O)N1CCN(c2ccc([N+](=O)[O-])cc2)CC1 | 12.3
4 | Cc1nc(C)c(-c2ccccc2)c(=O)[nH]1 | 13
5 | O=C(N/C(=C/c1cccc(Br)c1)c1nc2ccccc2[nH]1)c1ccccc1 | 8.7
6 | COc1cc(/C=N\NC(=O)COc2cccc(Cl)c2)ccc1OC(=O)c1cc(OC)c(OC)c(OC)c1 | 0.2
7 | COc1ccc(CCNC(=O)CCc2ccccc2)cc1 | -6
8 | O=C(O)CN1C(=O)/C(=C\c2ccccc2Sc2ccc(Cl)cc2)SC1=S | 9.8
9 | Cc1ccc(OCC(=O)Nc2cccc(C#N)c2)c(C)c1 | 0.4
10 | COc1ccc(CNCc2cccnc2)cc1 | 0
11 | Cc1cccc(-n2c(C)cc(/C=N\NC(=O)c3cccs3)c2C)c1 | -18.2
12 | O=[N+]([O-])c1ccccc1/C=N/Nc1nnc(-c2ccccc2)c(-c2ccccc2)n1 | 5.2
13 | Cc1ccc(N2C(=O)c3ccccc3NC2c2ccccc2O)cc1 (centres undefined) | -8.5
14 | COc1ccc2[nH]cc(CCNC(=S)Nc3ccccc3)c2c1 | -19
15 | O=C(O)CCc1nc2ccc(O)cc2[nH]1 | 5.5
16 | CC(=O)NC(c1ccccc1Cl)c1c(OC(C)=O)ccc2ccccc12 (centres undefined) | 9
17 | Cc1ccccc1N(C=O)C(=O)C1C(C)C2C=CC1C21CC1 (centres undefined) | -4.1
18 | O=C(NCCCNc1ccc([N+](=O)[O-])cc1C(F)(F)F)c1cc(F)c(F)cc1Cl | 7.8
19 | COc1ccc(N2C(=O)/C(=C/c3ccc(OCC(=O)O)c(Br)c3)C(=O)NC2=S)cc1 | -0.3
20 | COc1ccc(-c2ccc(/C=C3/SC(NC(C)=O)=NC3=O)o2)c([N+](=O)[O-])c1 | 4.9
21 | COC(=O)C(C)NC(=O)CCC1CCCCC1 (centres undefined) | 5.4
22 | COCCOC(=O)c1c(C)oc2ccc(OC(=O)c3ccc(OC)cc3)cc12 | 9.4
23 | Cc1ccc(C2Nc3cccc4cccc(c34)N2)s1 | 9.3
24 | C=CCC1(N(CCc2ccccc2)C(C)=O)CCCCC1 | 1.4
25 | Cc1ccc(N2CCN(/N=C\c3ccccc3[N+](=O)[O-])CC2)cc1 | -3.2
26 | O=C(Nc1ccc2nn(-c3ccc(F)cc3)nc2c1)c1ccco1 | 6.6
27 | CCOC(=O)C1=C(O)/C(=C/c2ccc(O)c(OCC)c2)SC1=Nc1cccc(Cl)c1 | -17.3
28 | COc1cc(OC)c([N+](=O)[O-])cc1/C=C1\C=C(c2ccc(Br)cc2)OC1=O | 49.1
29 | C/C(=N\NC(=O)c1cc2ccccc2cc1O)c1ccco1 | 10
